# Assay results as given in paper PMC12820563, “FoxP3 forms a head-to-head dimer in vivo and stabilizes its multimerization on adjacent microsatellites”.
# Some of the results follow.
# Molecular target: T1, MBP-FoxP1dN (Mus musculus, UniProt P58462 326-579)
# T1 sequence: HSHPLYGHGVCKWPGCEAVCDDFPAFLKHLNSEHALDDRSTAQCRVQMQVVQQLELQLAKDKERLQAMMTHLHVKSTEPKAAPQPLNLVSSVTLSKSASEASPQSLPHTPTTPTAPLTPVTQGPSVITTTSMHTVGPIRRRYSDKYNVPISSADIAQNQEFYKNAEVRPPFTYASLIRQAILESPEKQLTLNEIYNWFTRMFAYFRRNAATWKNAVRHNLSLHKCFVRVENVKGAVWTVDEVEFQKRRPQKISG
# Test: PD-seq (MBP pull-down with sequencing); 20 mM Tris-HCl pH 7.5, 100 mM NaCl, 1.5 mM MgCl2, 0.4 uM protein, 0.1 uM dsDNA library, 30 min, room temperature, amylose pull-down; high values mean tight binding
# Settings: protein: recombinant; tags: His6-MBP; chain copies: 2; dsDNA, one strand shown
# In short: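 Binding is given as reads-per-million enrichment, pull-down over input, with replicates pooled. The bait was an N-terminus-lacking mouse FoxP3 or FoxP1 fragment with a His6-MBP tag, expressed in E. coli and used at 0.4 µM with 0.1 µM Klenow-filled degenerate double-stranded DNA library for 30 min at room temperature in Tris pH 7.5 buffer with NaCl and MgCl2. Amylose resin pull-down with three washes was followed by proteinase K release, PCR barcoding and Illumina sequencing.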
row,Sequence,binding signal
1,GATGATTGTTCTCCCAGCTGATGAATTCTCTGGCTCGAGTAAACAAATTTTCCTAATCTTTCTGTTCAAGCGCCATCTAC,0.769 RPM ratio (pull-down/input)
2,GATGATTGTTCTCCCAGCTGATGAATTTGTATGGTCGAGTAAACAAATTTTCCTAATCTTTCTGTTCAAGCGCCATCTAC,1.2 RPM ratio (pull-down/input)
3,GATGATTGTTCTCCCAGCTGATGAATTGGACAAGTCGAGTAAACAAATTTTCCTAATCTTTCTGTTCAAGCGCCATCTAC,0.807 RPM ratio (pull-down/input)
4,GATGATTGTTCTCCCAGCTGATGAATTCGACTCTTCGAGTAAACAAATTTTCCTAATCTTTCTGTTCAAGCGCCATCTAC,0.898 RPM ratio (pull-down/input)
5,GATGATTGTTCTCCCAGCTGATGAATTGGATGGTTCGAGTAAACAAATTTTCCTAATCTTTCTGTTCAAGCGCCATCTAC,0.856 RPM ratio (pull-down/input)
6,GATGATTGTTCTCCCAGCTGATGAATTGGACAACTCGAGTAAACAAATTTTCCTAATCTTTCTGTTCAAGCGCCATCTAC,0.962 RPM ratio (pull-down/input)
7,GATGATTGTTCTCCCAGCTGATGAATTCCCAGGGTCGAGTAAACAAATTTTCCTAATCTTTCTGTTCAAGCGCCATCTAC,0.717 RPM ratio (pull-down/input)
8,GATGATTGTTCTCCCAGCTGATGAATTGGGCCACTCGAGTAAACAAATTTTCCTAATCTTTCTGTTCAAGCGCCATCTAC,0.841 RPM ratio (pull-down/input)
9,GATGATTGTTCTCCCAGCTGATGAATTTTGTCGATCGAGTAAACAAATTTTCCTAATCTTTCTGTTCAAGCGCCATCTAC,0.973 RPM ratio (pull-down/input)
10,GATGATTGTTCTCCCAGCTGATGAATTATAGTCTTCGAGTAAACAAATTTTCCTAATCTTTCTGTTCAAGCGCCATCTAC,0.967 RPM ratio (pull-down/input)
11,GATGATTGTTCTCCCAGCTGATGAATTGGAGCCATCGAGTAAACAAATTTTCCTAATCTTTCTGTTCAAGCGCCATCTAC,0.868 RPM ratio (pull-down/input)
12,GATGATTGTTCTCCCAGCTGATGAATTGCCTGGGTCGAGTAAACAAATTTTCCTAATCTTTCTGTTCAAGCGCCATCTAC,0.843 RPM ratio (pull-down/input)
13,GATGATTGTTCTCCCAGCTGATGAATTACTGCTGTCGAGTAAACAAATTTTCCTAATCTTTCTGTTCAAGCGCCATCTAC,1.22 RPM ratio (pull-down/input)
14,GATGATTGTTCTCCCAGCTGATGAATTTACGCCCTCGAGTAAACAAATTTTCCTAATCTTTCTGTTCAAGCGCCATCTAC,1.1 RPM ratio (pull-down/input)
15,GATGATTGTTCTCCCAGCTGATGAATTCCGGTTATCGAGTAAACAAATTTTCCTAATCTTTCTGTTCAAGCGCCATCTAC,0.934 RPM ratio (pull-down/input)
16,GATGATTGTTCTCCCAGCTGATGAATTATGTGTATCGAGTAAACAAATTTTCCTAATCTTTCTGTTCAAGCGCCATCTAC,1.92 RPM ratio (pull-down/input)
17,GATGATTGTTCTCCCAGCTGATGAATTCTAGAGTTCGAGTAAACAAATTTTCCTAATCTTTCTGTTCAAGCGCCATCTAC,0.856 RPM ratio (pull-down/input)
18,GATGATTGTTCTCCCAGCTGATGAATTAACCAACTCGAGTAAACAAATTTTCCTAATCTTTCTGTTCAAGCGCCATCTAC,0.968 RPM ratio (pull-down/input)
19,GATGATTGTTCTCCCAGCTGATGAATTCGTAGATTCGAGTAAACAAATTTTCCTAATCTTTCTGTTCAAGCGCCATCTAC,0.83 RPM ratio (pull-down/input)
20,GATGATTGTTCTCCCAGCTGATGAATTCTTTACGTCGAGTAAACAAATTTTCCTAATCTTTCTGTTCAAGCGCCATCTAC,0.992 RPM ratio (pull-down/input)
21,GATGATTGTTCTCCCAGCTGATGAATTGACTTCCTCGAGTAAACAAATTTTCCTAATCTTTCTGTTCAAGCGCCATCTAC,0.911 RPM ratio (pull-down/input)

row,Sequence,binding signal
1,GATGATTGTTCTCCCAGCTGATGAATTTGCACTATCGAGTAAACAAATTTTCCTAATCTTTCTGTTCAAGCGCCATCTAC,1.15 RPM ratio (pull-down/input)
2,GATGATTGTTCTCCCAGCTGATGAATTCCTAGTATCGAGTAAACAAATTTTCCTAATCTTTCTGTTCAAGCGCCATCTAC,0.902 RPM ratio (pull-down/input)
3,GATGATTGTTCTCCCAGCTGATGAATTTGTACTGTCGAGTAAACAAATTTTCCTAATCTTTCTGTTCAAGCGCCATCTAC,1.08 RPM ratio (pull-down/input)
4,GATGATTGTTCTCCCAGCTGATGAATTAACGCATTCGAGTAAACAAATTTTCCTAATCTTTCTGTTCAAGCGCCATCTAC,1.23 RPM ratio (pull-down/input)
5,GATGATTGTTCTCCCAGCTGATGAATTCAGTTTATCGAGTAAACAAATTTTCCTAATCTTTCTGTTCAAGCGCCATCTAC,1.49 RPM ratio (pull-down/input)
6,GATGATTGTTCTCCCAGCTGATGAATTCGGTGAGTCGAGTAAACAAATTTTCCTAATCTTTCTGTTCAAGCGCCATCTAC,0.85 RPM ratio (pull-down/input)
7,GATGATTGTTCTCCCAGCTGATGAATTCACGTAATCGAGTAAACAAATTTTCCTAATCTTTCTGTTCAAGCGCCATCTAC,1.38 RPM ratio (pull-down/input)
8,GATGATTGTTCTCCCAGCTGATGAATTAGCAGCCTCGAGTAAACAAATTTTCCTAATCTTTCTGTTCAAGCGCCATCTAC,0.873 RPM ratio (pull-down/input)
9,GATGATTGTTCTCCCAGCTGATGAATTTGCTATTTCGAGTAAACAAATTTTCCTAATCTTTCTGTTCAAGCGCCATCTAC,1.17 RPM ratio (pull-down/input)
10,GATGATTGTTCTCCCAGCTGATGAATTATCGGATTCGAGTAAACAAATTTTCCTAATCTTTCTGTTCAAGCGCCATCTAC,0.92 RPM ratio (pull-down/input)
11,GATGATTGTTCTCCCAGCTGATGAATTCATGGCCTCGAGTAAACAAATTTTCCTAATCTTTCTGTTCAAGCGCCATCTAC,0.841 RPM ratio (pull-down/input)
12,GATGATTGTTCTCCCAGCTGATGAATTGCAGTTATCGAGTAAACAAATTTTCCTAATCTTTCTGTTCAAGCGCCATCTAC,1.32 RPM ratio (pull-down/input)
13,GATGATTGTTCTCCCAGCTGATGAATTAAGCATTTCGAGTAAACAAATTTTCCTAATCTTTCTGTTCAAGCGCCATCTAC,1.12 RPM ratio (pull-down/input)
14,GATGATTGTTCTCCCAGCTGATGAATTCGGTTTATCGAGTAAACAAATTTTCCTAATCTTTCTGTTCAAGCGCCATCTAC,1.14 RPM ratio (pull-down/input)
15,GATGATTGTTCTCCCAGCTGATGAATTTAAAGAGTCGAGTAAACAAATTTTCCTAATCTTTCTGTTCAAGCGCCATCTAC,0.878 RPM ratio (pull-down/input)
16,GATGATTGTTCTCCCAGCTGATGAATTAAACGCTTCGAGTAAACAAATTTTCCTAATCTTTCTGTTCAAGCGCCATCTAC,0.89 RPM ratio (pull-down/input)
17,GATGATTGTTCTCCCAGCTGATGAATTCGACTCATCGAGTAAACAAATTTTCCTAATCTTTCTGTTCAAGCGCCATCTAC,0.863 RPM ratio (pull-down/input)
18,GATGATTGTTCTCCCAGCTGATGAATTCCACGGGTCGAGTAAACAAATTTTCCTAATCTTTCTGTTCAAGCGCCATCTAC,0.755 RPM ratio (pull-down/input)
19,GATGATTGTTCTCCCAGCTGATGAATTTAGTCCGTCGAGTAAACAAATTTTCCTAATCTTTCTGTTCAAGCGCCATCTAC,0.976 RPM ratio (pull-down/input)
20,GATGATTGTTCTCCCAGCTGATGAATTTTCCTAGTCGAGTAAACAAATTTTCCTAATCTTTCTGTTCAAGCGCCATCTAC,0.888 RPM ratio (pull-down/input)
21,GATGATTGTTCTCCCAGCTGATGAATTTTTCCGTTCGAGTAAACAAATTTTCCTAATCTTTCTGTTCAAGCGCCATCTAC,0.979 RPM ratio (pull-down/input)

row,Sequence,binding signal
1,GATGATTGTTCTCCCAGCTGATGAATTGCGCCTGTCGAGTAAACAAATTTTCCTAATCTTTCTGTTCAAGCGCCATCTAC,0.994 RPM ratio (pull-down/input)
2,GATGATTGTTCTCCCAGCTGATGAATTGCCGGCCTCGAGTAAACAAATTTTCCTAATCTTTCTGTTCAAGCGCCATCTAC,0.828 RPM ratio (pull-down/input)
3,GATGATTGTTCTCCCAGCTGATGAATTGGTCACTTCGAGTAAACAAATTTTCCTAATCTTTCTGTTCAAGCGCCATCTAC,0.97 RPM ratio (pull-down/input)
4,GATGATTGTTCTCCCAGCTGATGAATTCCCACCCTCGAGTAAACAAATTTTCCTAATCTTTCTGTTCAAGCGCCATCTAC,0.807 RPM ratio (pull-down/input)
5,GATGATTGTTCTCCCAGCTGATGAATTGGCACCGTCGAGTAAACAAATTTTCCTAATCTTTCTGTTCAAGCGCCATCTAC,0.835 RPM ratio (pull-down/input)
6,GATGATTGTTCTCCCAGCTGATGAATTGGTGGGTTCGAGTAAACAAATTTTCCTAATCTTTCTGTTCAAGCGCCATCTAC,0.941 RPM ratio (pull-down/input)
7,GATGATTGTTCTCCCAGCTGATGAATTATACTAATCGAGTAAACAAATTTTCCTAATCTTTCTGTTCAAGCGCCATCTAC,1.25 RPM ratio (pull-down/input)
8,GATGATTGTTCTCCCAGCTGATGAATTAAAGACGTCGAGTAAACAAATTTTCCTAATCTTTCTGTTCAAGCGCCATCTAC,0.89 RPM ratio (pull-down/input)
9,GATGATTGTTCTCCCAGCTGATGAATTGGAGGCATCGAGTAAACAAATTTTCCTAATCTTTCTGTTCAAGCGCCATCTAC,1.1 RPM ratio (pull-down/input)
10,GATGATTGTTCTCCCAGCTGATGAATTTGGATCATCGAGTAAACAAATTTTCCTAATCTTTCTGTTCAAGCGCCATCTAC,0.985 RPM ratio (pull-down/input)
11,GATGATTGTTCTCCCAGCTGATGAATTGTGGGCATCGAGTAAACAAATTTTCCTAATCTTTCTGTTCAAGCGCCATCTAC,1.12 RPM ratio (pull-down/input)
12,GATGATTGTTCTCCCAGCTGATGAATTATTTGAATCGAGTAAACAAATTTTCCTAATCTTTCTGTTCAAGCGCCATCTAC,1.11 RPM ratio (pull-down/input)
13,GATGATTGTTCTCCCAGCTGATGAATTTACCCTATCGAGTAAACAAATTTTCCTAATCTTTCTGTTCAAGCGCCATCTAC,1.23 RPM ratio (pull-down/input)
14,GATGATTGTTCTCCCAGCTGATGAATTTATTCCATCGAGTAAACAAATTTTCCTAATCTTTCTGTTCAAGCGCCATCTAC,1.16 RPM ratio (pull-down/input)
15,GATGATTGTTCTCCCAGCTGATGAATTCTTAAGCTCGAGTAAACAAATTTTCCTAATCTTTCTGTTCAAGCGCCATCTAC,0.801 RPM ratio (pull-down/input)
16,GATGATTGTTCTCCCAGCTGATGAATTGATAATATCGAGTAAACAAATTTTCCTAATCTTTCTGTTCAAGCGCCATCTAC,1.52 RPM ratio (pull-down/input)
17,GATGATTGTTCTCCCAGCTGATGAATTCCACTTCTCGAGTAAACAAATTTTCCTAATCTTTCTGTTCAAGCGCCATCTAC,0.849 RPM ratio (pull-down/input)
18,GATGATTGTTCTCCCAGCTGATGAATTATCAAGATCGAGTAAACAAATTTTCCTAATCTTTCTGTTCAAGCGCCATCTAC,0.955 RPM ratio (pull-down/input)
19,GATGATTGTTCTCCCAGCTGATGAATTCGACGTGTCGAGTAAACAAATTTTCCTAATCTTTCTGTTCAAGCGCCATCTAC,0.839 RPM ratio (pull-down/input)
20,GATGATTGTTCTCCCAGCTGATGAATTGCTCAAATCGAGTAAACAAATTTTCCTAATCTTTCTGTTCAAGCGCCATCTAC,1.09 RPM ratio (pull-down/input)
21,GATGATTGTTCTCCCAGCTGATGAATTATACCAGTCGAGTAAACAAATTTTCCTAATCTTTCTGTTCAAGCGCCATCTAC,0.958 RPM ratio (pull-down/input)
